According to PMC9911399, “Two distinct binding modes provide the RNA-binding protein RbFox with extraordinary sequence specificity”:
Where a chain is given by its changes, count along the chain named. This is one part of the list.

T1: RBFOX1 RRM RbFoxmut (Fox-RRM*) (Homo sapiens, UniProt Q9NWB1 109-208, R118D;E147R;N151S;E152T)
T1 sequence: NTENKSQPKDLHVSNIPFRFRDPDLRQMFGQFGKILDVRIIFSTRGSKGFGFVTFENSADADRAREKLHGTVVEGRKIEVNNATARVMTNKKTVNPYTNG

B1: GGGUUUU (DNA:RNA)
RNA: GGGAGACCGGAAUUCAGAUUGUCCGGGUUUUUUAAAUCCCGUCGUAGCCACCA
DNA 1: CAATCTGAATTCCGGTCTCCC
DNA 2: TGGTGGCTACGACGGGATT
B2: UAUCGUA (DNA:RNA)
RNA: B1 RNA with G25U, G26A, G27U, U28C, U29G, U31A
DNA 1: CAATCTGAATTCCGGTCTCCC
DNA 2: TGGTGGCTACGACGGGATT
B3: UCAUGAG (DNA:RNA)
RNA: B1 RNA with G25U, G26C, G27A, U29G, U30A, U31G
DNA 1: CAATCTGAATTCCGGTCTCCC
DNA 2: TGGTGGCTACGACGGGATT
B4: UCAGAGU (DNA:RNA)
RNA: B1 RNA with G25U, G26C, G27A, U28G, U29A, U30G
DNA 1: CAATCTGAATTCCGGTCTCCC
DNA 2: TGGTGGCTACGACGGGATT
B5: CGGAAAU (DNA:RNA)
RNA: B1 RNA with G25C, U28A, U29A, U30A
DNA 1: CAATCTGAATTCCGGTCTCCC
DNA 2: TGGTGGCTACGACGGGATT
B6: CCUUGGG (DNA:RNA)
RNA: B1 RNA with G25C, G26C, G27U, U29G, U30G, U31G
DNA 1: CAATCTGAATTCCGGTCTCCC
DNA 2: TGGTGGCTACGACGGGATT
B7: AGCGUUG (DNA:RNA)
RNA: B1 RNA with G25A, G27C, U28G, U31G
DNA 1: CAATCTGAATTCCGGTCTCCC
DNA 2: TGGTGGCTACGACGGGATT
B8: AGACACU (DNA:RNA)
RNA: B1 RNA with G25A, G27A, U28C, U29A, U30C
DNA 1: CAATCTGAATTCCGGTCTCCC
DNA 2: TGGTGGCTACGACGGGATT
B9: UGUCUUA (DNA:RNA)
RNA: B1 RNA with G25U, G27U, U28C, U31A
DNA 1: CAATCTGAATTCCGGTCTCCC
DNA 2: TGGTGGCTACGACGGGATT
B10: ACCUGGU (DNA:RNA)
RNA: B1 RNA with G25A, G26C, G27C, U29G, U30G
DNA 1: CAATCTGAATTCCGGTCTCCC
DNA 2: TGGTGGCTACGACGGGATT
B11: CAUACGG (DNA:RNA)
RNA: GGGAGACCGGAAUUCAGAUUGUCCCAUACGGUUAAAUCCCGUCGUAGCCACCA
DNA 1: CAATCTGAATTCCGGTCTCCC
DNA 2: TGGTGGCTACGACGGGATT
B12: AUUGCGA (DNA:RNA)
RNA: B11 RNA with C25A, A26U, A28G, G31A
DNA 1: CAATCTGAATTCCGGTCTCCC
DNA 2: TGGTGGCTACGACGGGATT
B13: UUUAUGG (DNA:RNA)
RNA: B11 RNA with C25U, A26U, C29U
DNA 1: CAATCTGAATTCCGGTCTCCC
DNA 2: TGGTGGCTACGACGGGATT
B14: AUAGCGG (DNA:RNA)
RNA: B11 RNA with C25A, A26U, U27A, A28G
DNA 1: CAATCTGAATTCCGGTCTCCC
DNA 2: TGGTGGCTACGACGGGATT
B15: GGGCGGG (DNA:RNA)
RNA: B1 RNA with U28C, U29G, U30G, U31G
DNA 1: CAATCTGAATTCCGGTCTCCC
DNA 2: TGGTGGCTACGACGGGATT
B16: AACAGUA (DNA:RNA)
RNA: B11 RNA with C25A, U27C, C29G, G30U, G31A
DNA 1: CAATCTGAATTCCGGTCTCCC
DNA 2: TGGTGGCTACGACGGGATT
B17: AGUUGUA (DNA:RNA)
RNA: B1 RNA with G25A, G27U, U29G, U31A
DNA 1: CAATCTGAATTCCGGTCTCCC
DNA 2: TGGTGGCTACGACGGGATT
B18: AUCGGGG (DNA:RNA)
RNA: B11 RNA with C25A, A26U, U27C, A28G, C29G
DNA 1: CAATCTGAATTCCGGTCTCCC
DNA 2: TGGTGGCTACGACGGGATT
B19: UGUAUUA (DNA:RNA)
RNA: B1 RNA with G25U, G27U, U28A, U31A
DNA 1: CAATCTGAATTCCGGTCTCCC
DNA 2: TGGTGGCTACGACGGGATT
B20: UUAGCGU (DNA:RNA)
RNA: B11 RNA with C25U, A26U, U27A, A28G, G31U
DNA 1: CAATCTGAATTCCGGTCTCCC
DNA 2: TGGTGGCTACGACGGGATT
B21: AGGUCAC (DNA:RNA)
RNA: B1 RNA with G25A, U29C, U30A, U31C
DNA 1: CAATCTGAATTCCGGTCTCCC
DNA 2: TGGTGGCTACGACGGGATT
B22: GGAUAUG (DNA:RNA)
RNA: B1 RNA with G27A, U29A, U31G
DNA 1: CAATCTGAATTCCGGTCTCCC
DNA 2: TGGTGGCTACGACGGGATT
B23: GUAUUCA (DNA:RNA)
RNA: B1 RNA with G26U, G27A, U30C, U31A
DNA 1: CAATCTGAATTCCGGTCTCCC
DNA 2: TGGTGGCTACGACGGGATT
B24: GUCGAAG (DNA:RNA)
RNA: B11 RNA with C25G, A26U, U27C, A28G, C29A, G30A
DNA 1: CAATCTGAATTCCGGTCTCCC
DNA 2: TGGTGGCTACGACGGGATT
B25: GAGUCGG (DNA:RNA)
RNA: B11 RNA with C25G, U27G, A28U
DNA 1: CAATCTGAATTCCGGTCTCCC
DNA 2: TGGTGGCTACGACGGGATT
B26: GCUACAA (DNA:RNA)
RNA: B11 RNA with C25G, A26C, G30A, G31A
DNA 1: CAATCTGAATTCCGGTCTCCC
DNA 2: TGGTGGCTACGACGGGATT
B27: ACAGCAG (DNA:RNA)
RNA: B11 RNA with C25A, A26C, U27A, A28G, G30A
DNA 1: CAATCTGAATTCCGGTCTCCC
DNA 2: TGGTGGCTACGACGGGATT
B28: UGAGCCG (DNA:RNA)
RNA: B11 RNA with C25U, A26G, U27A, A28G, G30C
DNA 1: CAATCTGAATTCCGGTCTCCC
DNA 2: TGGTGGCTACGACGGGATT
B29: ACUACCG (DNA:RNA)
RNA: B11 RNA with C25A, A26C, G30C
DNA 1: CAATCTGAATTCCGGTCTCCC
DNA 2: TGGTGGCTACGACGGGATT
B30: GCGUCAC (DNA:RNA)
RNA: B1 RNA with G26C, U29C, U30A, U31C
DNA 1: CAATCTGAATTCCGGTCTCCC
DNA 2: TGGTGGCTACGACGGGATT
B31: CAAUGCG (DNA:RNA)
RNA: B11 RNA with U27A, A28U, C29G, G30C
DNA 1: CAATCTGAATTCCGGTCTCCC
DNA 2: TGGTGGCTACGACGGGATT

molecular target: T1, RBFOX1 RRM RbFoxmut (Fox-RRM*); experiment: EMSA; HiTS-Eq, 1 nM pool, 10 min; buffer printed only for the single-RNA assays: 10 mM Tris pH 7.5, 150 mM NaCl, 3.4 mM EDTA, 0.001% NP-40, 30 C; conditions: tags: His6 N-terminal (pET28a); label: 5' 32P
In short: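 These values rest on relative association constants, computed from read-count changes of each RNA species versus the control reaction and normalised to the cognate motif. Reads came from free RNA recovered by 8% native PAGE after purified RbFox RRM (wild type or mutant) at increasing concentrations was equilibrated for 10 min in 50 µL with 1 nM of a 5′-radiolabelled pool with 7 randomized nucleotides and DNA-annealed flanks.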

Question: Which binding signal does the source give for B1 here?
Answer: Its binding signal is 0.0749 KA relative to UGCAUGU.

Question: How did the binding signal turn out when B2 was run?
Answer: Its binding signal is 0.123 KA relative to UGCAUGU.

Question: Which binding signal does the source give for B3 here?
Answer: Its binding signal is 0.119 KA relative to UGCAUGU.

Question: For B4, which binding signal is on record?
Answer: Its binding signal is 0.141 KA relative to UGCAUGU.

Question: For B5, which binding signal is on record?
Answer: The binding signal was 0.0824 KA relative to UGCAUGU.

Question: Which binding signal does the source give for B6 here?
Answer: Its binding signal is 0.0748 KA relative to UGCAUGU.

Question: Which binding signal does the source give for B7 here?
Answer: The binding signal was 0.202 KA relative to UGCAUGU.

Question: For B8, which binding signal is on record?
Answer: The binding signal was 0.0461 KA relative to UGCAUGU.

Question: How did the binding signal turn out when B9 was run?
Answer: Its binding signal is 0.132 KA relative to UGCAUGU.

Question: How did the binding signal turn out when B10 was run?
Answer: The binding signal was 0.118 KA relative to UGCAUGU.

Question: For B11, which binding signal is on record?
Answer: The binding signal was 0.101 KA relative to UGCAUGU.

Question: B12 was tested. Which binding signal did it give?
Answer: The binding signal was 0.0788 KA relative to UGCAUGU.

Question: For B13, which binding signal is on record?
Answer: Its binding signal is 0.0799 KA relative to UGCAUGU.

Question: For B14, which binding signal is on record?
Answer: Its binding signal is 0.0919 KA relative to UGCAUGU.

Question: With B15 as the binder, how does the binding signal read?
Answer: Its binding signal is 0.101 KA relative to UGCAUGU.

Question: For B16, which binding signal is on record?
Answer: Its binding signal is 0.0891 KA relative to UGCAUGU.

Question: With B17 as the binder, how does the binding signal read?
Answer: The binding signal was 0.2 KA relative to UGCAUGU.

Question: How did the binding signal turn out when B18 was run?
Answer: The binding signal was 0.109 KA relative to UGCAUGU.

Question: With B19 as the binder, how does the binding signal read?
Answer: Its binding signal is 0.175 KA relative to UGCAUGU.

Question: For B20, which binding signal is on record?
Answer: Its binding signal is 0.112 KA relative to UGCAUGU.

Question: B21 was tested. Which binding signal did it give?
Answer: Its binding signal is 0.0498 KA relative to UGCAUGU.

Question: Which binding signal does the source give for B22 here?
Answer: Its binding signal is 0.496 KA relative to UGCAUGU.

Question: B23 was tested. Which binding signal did it give?
Answer: The binding signal was 0.123 KA relative to UGCAUGU.

Question: B24 was tested. Which binding signal did it give?
Answer: Its binding signal is 0.111 KA relative to UGCAUGU.

Question: Which binding signal does the source give for B25 here?
Answer: The binding signal was 0.079 KA relative to UGCAUGU.

Question: How did the binding signal turn out when B26 was run?
Answer: The binding signal was 0.0743 KA relative to UGCAUGU.

Question: Which binding signal does the source give for B27 here?
Answer: The binding signal was 0.0954 KA relative to UGCAUGU.

Question: B28 was tested. Which binding signal did it give?
Answer: Its binding signal is 0.0906 KA relative to UGCAUGU.

Question: For B29, which binding signal is on record?
Answer: The binding signal was 0.0881 KA relative to UGCAUGU.

Question: With B30 as the binder, how does the binding signal read?
Answer: The binding signal was 0.0714 KA relative to UGCAUGU.

Question: With B31 as the binder, how does the binding signal read?
Answer: The binding signal was 0.13 KA relative to UGCAUGU.
